Measurements from the supplement of paper PMC8728848.
The other results are listed elsewhere or left out.

Columns and labels:
Experiment in all cases: glycan array binding signal (z-score within array); higher = stronger binding
Conditions in all cases: glycan notation: IUPAC condensed, linker removed
[1] = target: Neu5Ac(a2-3)Gal(b1-4)GlcNAc(b1-2)[Neu5Ac(a2-3)Gal(b1-4)GlcNAc(b1-4)]Man(a1-3)[GlcNAc(b1-4)][Neu5Ac(a2-3)Gal(b1-4)GlcNAc(b1-4)Man(a1-6)]Man(b1-4)GlcNAc(b1-4)GlcNAc
How it was run: (§1)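 Negative Z-scores can be read as non-binding. The Z-score is calculated within each array and then averaged across arrays of one protein sequence at different concentrations or buffers and across linkers. Arrays, 3228 in all, were curated from the Consortium for Functional Glycomics database and kept only where the protein sequence was available.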

[2] = target: Neu5Ac(a2-3)Gal(b1-4)GlcNAc(b1-2)[Neu5Ac(a2-3)Gal(b1-4)GlcNAc(b1-6)]Man(a1-6)[Neu5Ac(a2-3)Gal(b1-4)GlcNAc(b1-2)Man(a1-3)]Man(b1-4)GlcNAc(b1-4)GlcNAc
How it was run: as §1

[3] = target: Neu5Ac(a2-3)Gal(b1-4)GlcNAc(b1-2)[Neu5Ac(a2-3)Gal(b1-4)GlcNAc(b1-6)]Man(a1-6)[Neu5Ac(a2-3)Gal(b1-4)GlcNAc(b1-2)Man(a1-3)][GlcNAc(b1-4)]Man(b1-4)GlcNAc(b1-4)GlcNAc
How it was run: as §1

[4] = target: Neu5Ac(a2-3)Gal(b1-4)GlcNAc(b1-3)Gal
How it was run: as §1

[5] = target: Neu5Ac(a2-3)Gal(b1-4)GlcNAc(b1-3)Gal(b1-3)GlcNAc
How it was run: as §1

[6] = target: Neu5Ac(a2-3)Gal(b1-4)GlcNAc(b1-3)Gal(b1-4)GlcNAc
How it was run: as §1

[7] = target: Neu5Ac(a2-3)Gal(b1-4)GlcNAc(b1-3)Gal(b1-4)GlcNAc(b1-2)Man(a1-3)[Neu5Ac(a2-3)Gal(b1-4)GlcNAc(b1-3)Gal(b1-4)GlcNAc(b1-2)Man(a1-6)]Man(b1-4)GlcNAc(b1-4)GlcNAc
How it was run: as §1

[8] = target: Neu5Ac(a2-3)Gal(b1-4)GlcNAc(b1-3)Gal(b1-4)GlcNAc(b1-3)Gal(b1-4)GlcNAc
How it was run: as §1

[9] = target: Neu5Ac(a2-3)Gal(b1-4)GlcNAc(b1-3)Gal(b1-4)GlcNAc(b1-3)Gal(b1-4)GlcNAc(b1-2)Man(a1-3)[Neu5Ac(a2-3)Gal(b1-4)GlcNAc(b1-3)Gal(b1-4)GlcNAc(b1-3)Gal(b1-4)GlcNAc(b1-2)Man(a1-6)]GalNAc
How it was run: as §1

[10] = target: Neu5Ac(a2-3)Gal(b1-4)GlcNAc(b1-3)Gal(b1-4)GlcNAc(b1-3)GalNAc
How it was run: as §1

[11] = target: Neu5Ac(a2-3)Gal(b1-4)GlcNAc(b1-3)Gal(b1-4)GlcNAc(b1-3)[Neu5Ac(a2-3)Gal(b1-4)GlcNAc(b1-3)Gal(b1-4)GlcNAc(b1-6)]GalNAc
How it was run: as §1

[12] = target: Neu5Ac(a2-3)Gal(b1-4)GlcNAc(b1-3)Gal(b1-4)GlcNAc(b1-6)[Gal(b1-3)]GalNAc
How it was run: as §1

[13] = target: Neu5Ac(a2-3)Gal(b1-4)GlcNAc(b1-3)Gal(b1-4)[Fuc(a1-3)]GlcNAc
How it was run: as §1

[14] = target: Neu5Ac(a2-3)Gal(b1-4)GlcNAc(b1-3)GalNAc
How it was run: as §1

[15] = target: Neu5Ac(a2-3)Gal(b1-4)GlcNAc(b1-3)[Neu5Ac(a2-3)Gal(b1-4)GlcNAc(b1-6)]GalNAc
How it was run: as §1

[16] = target: Neu5Ac(a2-3)Gal(b1-4)GlcNAc(b1-6)GalNAc
How it was run: as §1

[17] = target: Neu5Ac(a2-3)Gal(b1-4)GlcNAc(b1-6)[Gal(b1-3)]GalNAc
How it was run: as §1

[18] = target: Neu5Ac(a2-3)Gal(b1-4)GlcNAc(b1-6)[Neu5Ac(a2-3)Gal(b1-3)]GalNAc
How it was run: as §1

[19] = target: Neu5Ac(a2-3)Gal(b1-4)GlcNAc6S
How it was run: as §1

[20] = target: Neu5Ac(a2-3)Gal(b1-4)[Fuc(a1-3)]GlcNAc
How it was run: as §1

[21] = target: Neu5Ac(a2-3)Gal(b1-4)[Fuc(a1-3)]GlcNAc(b1-2)Man
How it was run: as §1

[22] = target: Neu5Ac(a2-3)Gal(b1-4)[Fuc(a1-3)]GlcNAc(b1-3)Gal
How it was run: as §1

[23] = target: Neu5Ac(a2-3)Gal(b1-4)[Fuc(a1-3)]GlcNAc(b1-3)Gal(b1-4)GlcNAc
How it was run: as §1

[24] = target: Neu5Ac(a2-3)Gal(b1-4)[Fuc(a1-3)]GlcNAc(b1-3)Gal(b1-4)[Fuc(a1-3)]GlcNAc(b1-3)Gal(b1-4)[Fuc(a1-3)]GlcNAc
How it was run: as §1

[25] = target: Neu5Ac(a2-3)Gal(b1-4)[Fuc(a1-3)]GlcNAc(b1-3)GalNAc
How it was run: as §1

[26] = target: Neu5Ac(a2-3)Gal(b1-4)[Fuc(a1-3)]GlcNAc(b1-6)[Gal(b1-3)]GalNAc
How it was run: as §1

[27] = target: Neu5Ac(a2-3)Gal(b1-4)[Fuc(a1-3)]GlcNAc(b1-6)[Neu5Ac(a2-3)Gal(b1-3)]GalNAc
How it was run: as §1

[28] = target: Neu5Ac(a2-3)Gal(b1-4)[Fuc(a1-3)]GlcNAc6S
How it was run: as §1

[29] = target: Neu5Ac(a2-3)Gal6S(b1-4)GlcNAc
How it was run: as §1

[30] = target: Neu5Ac(a2-3)Gal6S(b1-4)[Fuc(a1-3)]GlcNAc
How it was run: as §1

Neu5Ac(a2-3)GalNAc = target: Neu5Ac(a2-3)GalNAc
How it was run: as §1

[31] = target: Neu5Ac(a2-3)GalNAc(b1-4)GlcNAc
How it was run: as §1

[32] = target: Neu5Ac(a2-3)[GalNAc(b1-4)]Gal(b1-4)Glc
How it was run: as §1

[33] = target: Neu5Ac(a2-3)[GalNAc(b1-4)]Gal(b1-4)GlcNAc
How it was run: as §1

[34] = target: Neu5Ac(a2-3)[GalNAc(b1-4)]Gal(b1-4)GlcNAc(b1-3)GalNAc
How it was run: as §1

[35] = target: Neu5Ac(a2-3)[Neu5Ac(a2-6)]GalNAc
How it was run: as §1

Neu5Ac(a2-6)Gal = target: Neu5Ac(a2-6)Gal
How it was run: as §1

[36] = target: Neu5Ac(a2-6)Gal(b1-3)GlcNAc(b1-3)[Gal(b1-4)GlcNAc(b1-6)]Gal(b1-4)Glc
How it was run: as §1

Neu5Ac(a2-6)Gal(b1-4)Glc = target: Neu5Ac(a2-6)Gal(b1-4)Glc
How it was run: as §1

[37] = target: Neu5Ac(a2-6)Gal(b1-4)GlcNAc
How it was run: as §1

[38] = target: Neu5Ac(a2-6)Gal(b1-4)GlcNAc(b1-2)Man
How it was run: as §1

[39] = target: Neu5Ac(a2-6)Gal(b1-4)GlcNAc(b1-2)Man(a1-3)Man(b1-4)GlcNAc(b1-4)GlcNAc
How it was run: as §1

[40] = target: Neu5Ac(a2-6)Gal(b1-4)GlcNAc(b1-2)Man(a1-3)[Gal(b1-4)GlcNAc(b1-2)Man(a1-6)]Man(b1-4)GlcNAc(b1-4)GlcNAc
How it was run: as §1

[41] = target: Neu5Ac(a2-6)Gal(b1-4)GlcNAc(b1-2)Man(a1-3)[GlcNAc(b1-2)Man(a1-6)]Man(b1-4)GlcNAc(b1-4)GlcNAc
How it was run: as §1

[42] = target: Neu5Ac(a2-6)Gal(b1-4)GlcNAc(b1-2)Man(a1-3)[GlcNAc(b1-4)][Neu5Ac(a2-6)Gal(b1-4)GlcNAc(b1-2)Man(a1-6)]Man(b1-4)GlcNAc(b1-4)GlcNAc
How it was run: as §1

B1: FimA-N1 (Actinomyces oris) (protein)
chain: MHHHHHHSSGVDLGTENLYFQSNATETPNYGNIKTDATGSLVIHKHLTGGGKDIGTPTGTAQNADDKGPAVEGVVFTAYPITDINLKDPAGWDTISNLSRTGVPDSACANPAAPTLGAHQFGTPKVSPATTKEGLATITEMPVQAYLVCETTTPGDIVQKAKPFVVTIPHPNTAAGADGQWIYDVNVYPKNEAIDVDKTIQAQK
[1]
  glycan array binding signal (z-score): 0.037
[2]
  glycan array binding signal (z-score): -0.205
[3]
  glycan array binding signal (z-score): -0.572
[4]
  glycan array binding signal (z-score): -0.466
[5]
  glycan array binding signal (z-score): -0.379
[6]
  glycan array binding signal (z-score): 0.158
[7]
  glycan array binding signal (z-score): 0.014
[8]
  glycan array binding signal (z-score): -0.142
[9]
  glycan array binding signal (z-score): 2.52
[10]
  glycan array binding signal (z-score): 0.148
[11]
  glycan array binding signal (z-score): -0.021
[12]
  glycan array binding signal (z-score): -0.419
[13]
  glycan array binding signal (z-score): -0.16
[14]
  glycan array binding signal (z-score): -0.181
[15]
  glycan array binding signal (z-score): -0.03
[16]
  glycan array binding signal (z-score): -0.039
[17]
  glycan array binding signal (z-score): -0.173
[18]
  glycan array binding signal (z-score): -0.184
[19]
  glycan array binding signal (z-score): -0.095
[20]
  glycan array binding signal (z-score): -0.353
[21]
  glycan array binding signal (z-score): -0.08
[22]
  glycan array binding signal (z-score): -0.315
[23]
  glycan array binding signal (z-score): 0.242
[24]
  glycan array binding signal (z-score): -0.108
[25]
  glycan array binding signal (z-score): 0.263
[26]
  glycan array binding signal (z-score): 0.446
[27]
  glycan array binding signal (z-score): 0.271
[28]
  glycan array binding signal (z-score): -0.08
[29]
  glycan array binding signal (z-score): -0.453
[30]
  glycan array binding signal (z-score): -0.34
Neu5Ac(a2-3)GalNAc
  glycan array binding signal (z-score): -0.393
[31]
  glycan array binding signal (z-score): -0.114
[32]
  glycan array binding signal (z-score): -0.218
[33]
  glycan array binding signal (z-score): -0.295
[34]
  glycan array binding signal (z-score): -0.399
[35]
  glycan array binding signal (z-score): 0.565
Neu5Ac(a2-6)Gal
  glycan array binding signal (z-score): -0.469
[36]
  glycan array binding signal (z-score): -0.454
Neu5Ac(a2-6)Gal(b1-4)Glc
  glycan array binding signal (z-score): -0.022
[37]
  glycan array binding signal (z-score): -0.052
[38]
  glycan array binding signal (z-score): -0.484
[39]
  glycan array binding signal (z-score): -0.135
[40]
  glycan array binding signal (z-score): 6.46
[41]
  glycan array binding signal (z-score): -0.461
[42]
  glycan array binding signal (z-score): -0.234
